# Measured values taken from the supplement of paper PMC11369174, “Proteome-scale characterisation of motif-based interactome rewiring by disease mutations” (Molecular Systems Biology, 2024).
# Some of the results follow. These are enrichments in a pooled selection; single values are uncertain.
# T1: PEX14_Pex14__O75381_16_84
# T1 chain: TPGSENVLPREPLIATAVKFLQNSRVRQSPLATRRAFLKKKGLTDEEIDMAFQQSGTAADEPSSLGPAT
# T2: MSN_FERM_1_P26038_1_322
# T2 chain: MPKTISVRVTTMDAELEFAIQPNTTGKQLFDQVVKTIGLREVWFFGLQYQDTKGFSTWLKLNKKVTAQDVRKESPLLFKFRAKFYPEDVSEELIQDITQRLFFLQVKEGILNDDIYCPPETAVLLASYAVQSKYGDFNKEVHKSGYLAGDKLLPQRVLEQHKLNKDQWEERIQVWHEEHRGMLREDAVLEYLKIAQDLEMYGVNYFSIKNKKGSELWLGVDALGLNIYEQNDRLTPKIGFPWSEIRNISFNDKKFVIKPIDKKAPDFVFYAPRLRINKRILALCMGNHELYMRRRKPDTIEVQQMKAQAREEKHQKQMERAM
# T3: RDX_FERM_1_P35241_5_295
# T3 chain: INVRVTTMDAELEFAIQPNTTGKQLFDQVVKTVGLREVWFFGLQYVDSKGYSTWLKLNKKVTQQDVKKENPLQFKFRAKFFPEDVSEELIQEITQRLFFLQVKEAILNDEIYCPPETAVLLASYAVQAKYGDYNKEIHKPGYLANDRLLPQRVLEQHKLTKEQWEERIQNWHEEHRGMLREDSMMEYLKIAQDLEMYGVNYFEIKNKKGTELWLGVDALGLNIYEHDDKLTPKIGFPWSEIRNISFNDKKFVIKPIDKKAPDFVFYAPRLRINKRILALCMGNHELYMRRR
# How the values were obtained:
# Assay in all cases: mean normalised NGS count of phage-displayed peptide after selection on bait (% of reads); baits are purified protein domains named by gene / domain / UniProt id / residues; peptides come from disordered regions of human proteins; higher = stronger enrichment / binding
# [1] = biological target: T1, PEX14_Pex14__O75381_16_84; settings: replicate selections in which the peptide was seen: 2
# MSN_FERM_1_P26038_1_322 = biological target: T2, MSN_FERM_1_P26038_1_322
# OXSR1___O95747_434_527 = biological target: OXSR1___O95747_434_527
# [2] = biological target: PDCD6IP_Bro__Q8WUM4_1_359
# [3] = biological target: PDCD6IP_Alix-V-domain__Q8WUM4_360_702
# NCK1_SH3_1_P16333_5_60 = biological target: NCK1_SH3_1_P16333_5_60
# Src_SH3__P12931_87_144 = biological target: Src_SH3__P12931_87_144
# RDX_FERM_1_P35241_5_295 = biological target: T3, RDX_FERM_1_P35241_5_295
# [4] = replicate selections in which the peptide was seen: 6
# [5] = replicate selections in which the peptide was seen: 3
# [6] = replicate selections in which the peptide was seen: 2
# [7] = replicate selections in which the peptide was seen: 5
# [8] = replicate selections in which the peptide was seen: 4
# Chain of OXSR1___O95747_434_527 (chain, as listed by the source): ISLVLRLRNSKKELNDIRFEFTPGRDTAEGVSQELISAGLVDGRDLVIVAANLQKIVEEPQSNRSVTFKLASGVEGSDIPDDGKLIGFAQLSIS
binder,measurement,setting,value
KWVAYDYQTYFTNAWA [SCN1A 1270-1285 mut P35498.G1275D],mean normalised NGS count,[1],0.0629
AYLVQRGAEDRDWQQQ [OPTN 532-547 mut Q96CV9.R545Q],mean normalised NGS count,MSN_FERM_1_P26038_1_322; [4],0.214
QWYPVTLPTGSGGSGG [SYNGAP1 361-376 wt],mean normalised NGS count,MSN_FERM_1_P26038_1_322; [4],0.0726
LFQITTSADWDGLLAP [SCN8A 1717-1732 mut P35498.G1725D],mean normalised NGS count,MSN_FERM_1_P26038_1_322; [4],0.497
YTFPELKLTNAPGSFT [BRCA1 695-710 mut P38398.D695Y],mean normalised NGS count,MSN_FERM_1_P26038_1_322; [4],0.0415
FEGMRFVVNALIGAIP [SCN9A 1304-1319 mut Q15858.V1309F],mean normalised NGS count,OXSR1___O95747_434_527; [5],25.5
SYWADIFVQNLVPDWR [SLC12A3 319-334 mut P55017.R321W],mean normalised NGS count,[1],0.124
LFQITTSADWDGLLAP [SCN5A 1717-1732 mut P35498.G1725D],mean normalised NGS count,MSN_FERM_1_P26038_1_322; [4],0.497
ADALWWGLMTLTTIGY [KCNQ2 265-280 mut O43526.I273M],mean normalised NGS count,[2]; [6],6.14
VRSELVRHSSLLALLW [RDH12 233-248 wt],mean normalised NGS count,[3]; [7],0.189
ADAFWWGLITLTTIGY [KCNQ2 265-280 mut O43526.L268F],mean normalised NGS count,[2]; [5],20.4
SPKAPVPLFPPLPPPP [MECP2 375-390 mut P51608.L383F],mean normalised NGS count,NCK1_SH3_1_P16333_5_60; [4],0.393
same,mean normalised NGS count,Src_SH3__P12931_87_144; [8],0.0551
PDWMGRLWVTFSGKLR [CACNA1H 772-787 mut O95180.G773D],mean normalised NGS count,[1],0.0717
LEGKQFTVTKLKENTE [TTN 25985-26000 mut Q8WZ42.Q25986E],mean normalised NGS count,OXSR1___O95747_434_527; [4],4.67
KRNIVVKTVEMRDGEV [GFAP 405-420 wt],mean normalised NGS count,OXSR1___O95747_434_527; [6],0.108
LFQITTSADWDGLLAP [SCN3A 1717-1732 mut P35498.G1725D],mean normalised NGS count,MSN_FERM_1_P26038_1_322; [4],0.497
LQGKQFTVTKLKENTE [TTN 25985-26000 wt],mean normalised NGS count,OXSR1___O95747_434_527; [4],4.89
WPLPQPPSPMPAASAQ [FOXL2 204-219 mut P58012.Y215C],mean normalised NGS count,NCK1_SH3_1_P16333_5_60; [4],0.51
same,mean normalised NGS count,Src_SH3__P12931_87_144; [4],0.573
LIEFRVLAGEWIETMW [SCN1A 942-957 mut P35498.V944E],mean normalised NGS count,[1],0.472
KEAALYPHLPPEADLR [SQSTM1 378-393 mut Q13501.P392L],mean normalised NGS count,[3]; [7],0.7
EVPKLYPEFPPKYMAE [SPART 109-124 mut Q8N0X7.D121Y],mean normalised NGS count,[3]; [7],1.54
QEQGRFHIENTDDLTT [TTN 34299-34314 wt],mean normalised NGS count,OXSR1___O95747_434_527; [7],30.1
EYRFHVLAANAGGPGE [TTN 31029-31044 mut Q8WZ42.R31033H],mean normalised NGS count,OXSR1___O95747_434_527; [5],0.524
YPQLTAGYQGLLAIVK [FAM222A 92-107 mut Q5U5X8.H95L],mean normalised NGS count,[3]; [7],3.1
HEPGKLQFEVQKVDRP [TTN 1952-1967 wt],mean normalised NGS count,OXSR1___O95747_434_527; [5],1.79
PSEDKASKVFFSYRAD [SLC12A3 308-323 mut P55017.G316V],mean normalised NGS count,[1],3.77
PGWLVTVVEEKELVRR [SRCAP 2751-2766 mut Q6ZRS2.R2753W],mean normalised NGS count,OXSR1___O95747_434_527; [6],1.12
MAQMATTAAGVAVGSA [CHCHD2 56-71 wt],mean normalised NGS count,[2]; [6],0.0449
LFQITTSADWDGLLAP [SCN2A 1717-1732 mut P35498.G1725D],mean normalised NGS count,MSN_FERM_1_P26038_1_322; [4],0.497
IHSQEQGRFHIENTDD [TTN 34296-34311 wt],mean normalised NGS count,OXSR1___O95747_434_527; [4],12.6
QQRAAPGEPGWMGRLW [CACNA1H 764-779 wt],mean normalised NGS count,[1],0.00449
KYSLTPVNPAGEKAVF [TTN 19602-19617 mut Q8WZ42.L19607P],mean normalised NGS count,MSN_FERM_1_P26038_1_322; [4],0.837
same,mean normalised NGS count,RDX_FERM_1_P35241_5_295; [5],0.827
EVPKLYPEFPPKDMAE [SPART 109-124 wt],mean normalised NGS count,[3]; [6],0.0814
LFQITTSADWDGLLAP [SCN10A 1717-1732 mut P35498.G1725D],mean normalised NGS count,MSN_FERM_1_P26038_1_322; [4],0.497
MFQLPTLNFSPEQGAS [SIX3 79-94 mut O95343.V92G],mean normalised NGS count,MSN_FERM_1_P26038_1_322; [4],0.458
same,mean normalised NGS count,RDX_FERM_1_P35241_5_295; [8],0.0965
SWDVPENDGGAPVKNY [TTN 27224-27239 wt],mean normalised NGS count,MSN_FERM_1_P26038_1_322; [4],0.134
same,mean normalised NGS count,RDX_FERM_1_P35241_5_295; [5],0.0852
AYLVQRGAEDRDWRQQ [OPTN 532-547 wt],mean normalised NGS count,MSN_FERM_1_P26038_1_322; [4],0.0688
YDLLPFLSSTISPYYA [CRYAA 34-49 mut P02489.R49C],mean normalised NGS count,MSN_FERM_1_P26038_1_322; [4],0.476
same,mean normalised NGS count,RDX_FERM_1_P35241_5_295; [5],0.107
RFTVKVTGEPKPEITW [NEXN 600-615 wt],mean normalised NGS count,OXSR1___O95747_434_527; [8],0.213
KYSLTLVNPAGEKAVF [TTN 19602-19617 wt],mean normalised NGS count,MSN_FERM_1_P26038_1_322; [4],0.532
LFQITTSADWDGLLAP [SCN1A 1717-1732 mut P35498.G1725D],mean normalised NGS count,MSN_FERM_1_P26038_1_322; [4],0.497
PTKIREYTLTHLPQGA [TTN 31013-31028 wt],mean normalised NGS count,MSN_FERM_1_P26038_1_322; [4],0.051
same,mean normalised NGS count,RDX_FERM_1_P35241_5_295; [5],0.012
SPKAPVPLLPPLPPPP [MECP2 375-390 wt],mean normalised NGS count,NCK1_SH3_1_P16333_5_60; [6],0.00925
IHSQEQGRFHTENTDD [TTN 34296-34311 mut Q8WZ42.I34306T],mean normalised NGS count,OXSR1___O95747_434_527; [5],0.0373
ALYDQLLKQVEALKME [APC 4-19 mut P25054.S5L],mean normalised NGS count,[3]; [5],30.2
MAQMATTAAGVAVGSA [CHCHD2P9 56-71 wt],mean normalised NGS count,[2]; [6],0.0449
REPGKLQFEVQKVDRP [TTN 1952-1967 mut Q8WZ42.H1952R],mean normalised NGS count,OXSR1___O95747_434_527; [7],1.52
REKLYPPLPPRWLEVI [TTN 15005-15020 mut Q8WZ42.S15012L],mean normalised NGS count,[3]; [7],53.5
LFQITTSADWDGLLAP [SCN9A 1717-1732 mut P35498.G1725D],mean normalised NGS count,MSN_FERM_1_P26038_1_322; [4],0.497
MAQMATTAAGVAVGSA [CHCHD10 56-71 wt],mean normalised NGS count,[2]; [6],0.0449
LAEVFQALEQLGHQAF [RECQL4 466-481 mut O94761.P466L],mean normalised NGS count,[2]; [6],0.0904
FPPLPPPPPEPESSED [MECP2 383-398 mut P51608.L383F],mean normalised NGS count,NCK1_SH3_1_P16333_5_60; [6],0.00626
YYDFSKGIDHKKSDDR [UBIAD1 104-119 wt],mean normalised NGS count,MSN_FERM_1_P26038_1_322; [7],0.0184
same,mean normalised NGS count,RDX_FERM_1_P35241_5_295; [8],0.126
VYPYLSQFQQDKQQLV [BRCA2 2151-2166 mut P51587.S2152Y],mean normalised NGS count,[3]; [7],0.658
WMVPTSVERLGEGGSI [SETD5 1166-1181 mut Q9C0A6.R1176G],mean normalised NGS count,MSN_FERM_1_P26038_1_322; [7],0.457
